Results reported in PMC4336329 (PLoS ONE, 2015).
The campaign covered roughly 310,000 compounds. About 14,000 (4.5%) showed an effect of 50% or more. The effect is printed as a negative number. The list shows a part of the results.
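Further: peak tail current of the secondary pulse compared with the same well before compound.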

Each compound was assayed against human ether-à-go-go-related gene (hERG) potassium channel (human, UniProt Q12809) (assay: primary screen, population patch clamp on CHO cells stably expressing hERG).
Chain of human ether-à-go-go-related gene (hERG) potassium channel (Q12809 whole entry, looked up): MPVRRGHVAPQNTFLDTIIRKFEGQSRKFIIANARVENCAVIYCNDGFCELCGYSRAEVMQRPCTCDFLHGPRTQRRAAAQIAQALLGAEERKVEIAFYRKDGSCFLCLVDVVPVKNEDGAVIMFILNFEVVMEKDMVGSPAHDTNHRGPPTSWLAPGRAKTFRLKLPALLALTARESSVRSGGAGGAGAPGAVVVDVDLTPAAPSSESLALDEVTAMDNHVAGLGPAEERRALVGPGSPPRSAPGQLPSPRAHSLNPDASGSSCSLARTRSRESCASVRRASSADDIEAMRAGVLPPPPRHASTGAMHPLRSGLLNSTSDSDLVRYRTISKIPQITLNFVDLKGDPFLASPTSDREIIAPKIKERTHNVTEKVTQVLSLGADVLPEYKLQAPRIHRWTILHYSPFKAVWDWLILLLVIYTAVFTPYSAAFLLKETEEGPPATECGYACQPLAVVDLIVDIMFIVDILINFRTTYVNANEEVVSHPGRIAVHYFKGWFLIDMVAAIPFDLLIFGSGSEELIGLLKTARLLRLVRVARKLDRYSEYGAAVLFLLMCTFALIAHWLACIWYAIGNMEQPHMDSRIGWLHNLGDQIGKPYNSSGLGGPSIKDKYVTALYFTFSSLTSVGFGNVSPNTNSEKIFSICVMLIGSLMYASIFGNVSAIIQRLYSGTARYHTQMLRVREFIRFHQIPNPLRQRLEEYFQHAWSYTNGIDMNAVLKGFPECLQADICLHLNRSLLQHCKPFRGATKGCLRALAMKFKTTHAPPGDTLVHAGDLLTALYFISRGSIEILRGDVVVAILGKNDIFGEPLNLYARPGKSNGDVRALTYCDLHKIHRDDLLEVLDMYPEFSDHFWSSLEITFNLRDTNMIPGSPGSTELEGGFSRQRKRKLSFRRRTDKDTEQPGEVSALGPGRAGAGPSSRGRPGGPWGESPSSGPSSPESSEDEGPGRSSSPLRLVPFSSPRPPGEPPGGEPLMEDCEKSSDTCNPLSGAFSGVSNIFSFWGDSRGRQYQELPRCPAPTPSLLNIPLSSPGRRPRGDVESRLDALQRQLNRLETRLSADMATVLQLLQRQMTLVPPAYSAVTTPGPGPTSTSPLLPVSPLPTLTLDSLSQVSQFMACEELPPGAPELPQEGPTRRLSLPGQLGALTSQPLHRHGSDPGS
For CCc1ccc2[nH]c(=O)c(CN(Cc3ccccc3OC)Cc3nnnn3Cc3ccco3)cc2c1, the “hERG current change (%, negative = inhibition) at 10uM” value was -14.3%.
CS(=O)(=O)c1ccc(C(=O)NCC2(N3CCCCC3)CCCCC2)cc1 was tested, and the “hERG current change (%, negative = inhibition) at 10uM” value was -11%.
With Cc1ccc(-c2cc(C(=O)NN3CCOCC3)c3cc(Br)ccc3n2)o1 the “hERG current change (%, negative = inhibition) at 10uM” value was 16.1%.
For COc1ccc(/C=C2\SC(=S)N(CCCC(=O)Nc3cc(C)on3)C2=O)cc1OC, the “hERG current change (%, negative = inhibition) at 10uM” value was 0.863%.
CCOC(=O)N1CCC(NS(=O)(=O)c2ccc3c(c2)oc(=O)n3C)CC1 was tested, and the “hERG current change (%, negative = inhibition) at 10uM” value was 1.74%.
In the case of CC(C)Cn1c(=O)c2ccccc2n2c(CCC(=O)NCc3ccccn3)nnc12, the “hERG current change (%, negative = inhibition) at 10uM” value is reported as -8.48%.
For COc1ccc(Cn2nnnc2CN(Cc2cc3cc(C)ccc3[nH]c2=O)C2CCCC2)cc1, the “hERG current change (%, negative = inhibition) at 10uM” value was 4.92%.
Cc1ccc(S(=O)(=O)NC(=O)Nc2ccccc2)cc1 was tested, and the “hERG current change (%, negative = inhibition) at 10uM” value was 7%.
For O=C(O)CCC(=O)NNC(=O)CCC1CCCCC1, the “hERG current change (%, negative = inhibition) at 10uM” value was 13.1%.
In the case of CC(C)OP(=O)(c1ccc(N(C)C)cc1)C(O)c1ccc(Br)cc1 (stereo not drawn), the “hERG current change (%, negative = inhibition) at 10uM” value is reported as 2.74%.
CCc1nc(Nc2cccc(OC)c2)c2oc3ccccc3c2n1.Cl was tested, and the “hERG current change (%, negative = inhibition) at 10uM” value was 10.6%.
CCCc1cc(C(=O)OC)c2ccccc2n1 was tested, and the “hERG current change (%, negative = inhibition) at 10uM” value was -10.9%.
In the case of CCCCN(C(=O)c1c(C)noc1C)c1c(N)n(CCC)c(=O)[nH]c1=O, the “hERG current change (%, negative = inhibition) at 10uM” value is reported as -6.29%.
O=C(CSc1nc2ccccc2n1S(=O)(=O)c1ccccc1)N1CCCC1 was tested, and the “hERG current change (%, negative = inhibition) at 10uM” value was 1.22%.
For O=C(O)c1cccc(NC(=O)c2cccc(NC(=O)C3CCCO3)c2)c1 (stereo not drawn), the “hERG current change (%, negative = inhibition) at 10uM” value was -4.17%.
With O=C(/C=C/Nc1ccccc1O)c1ccco1 the “hERG current change (%, negative = inhibition) at 10uM” value was 5.62%.
For Cc1ccc(C)c(S(=O)(=O)N2CCCC2CNC(=O)C(=O)NCCc2ccccc2)c1 (stereo not drawn), the “hERG current change (%, negative = inhibition) at 10uM” value was -40.7%.
Cc1cc(C)c2nc(N3CCC(C(=O)NCC4CCCO4)CC3)sc2c1 (stereo not drawn) was tested, and the “hERG current change (%, negative = inhibition) at 10uM” value was -9.12%.
In the case of CN(C(=O)CSc1nnc(N)s1)C1CCCCC1, the “hERG current change (%, negative = inhibition) at 10uM” value is reported as -1.75%.
In the case of COc1ccc(OC)c(NC(=O)CCN2CCN(C)CC2)c1.Cl, the “hERG current change (%, negative = inhibition) at 10uM” value is reported as -0.547%.
For CCOC(=O)c1ccc(N(CC(=O)NC2CCCCC2)C(=O)CNC(=O)c2ccco2)cc1, the “hERG current change (%, negative = inhibition) at 10uM” value was -34.1%.
In the case of Cc1cccc(N2CCN(C(=O)COc3cc(=O)n(C)c4ccccc34)CC2)c1C, the “hERG current change (%, negative = inhibition) at 10uM” value is reported as -61.2%.
In the case of Cc1ccc(NC(=O)c2cc(C)nn2-c2ccccc2)cc1, the “hERG current change (%, negative = inhibition) at 10uM” value is reported as -3.24%.
With N#Cc1c(Nc2cccc(F)c2)sc2c(O)cc(=O)[nH]c12 the “hERG current change (%, negative = inhibition) at 10uM” value was 27.3%.
